PubChem BioAssay AID588453 (National Center for Advancing Translational Sciences (NCATS), 2011)
About 4,000 (1%) of roughly 390,000 compounds were called active. This list was built around the results that the source calls inconclusive (neither active nor inactive); the mix of calls is not that of the screen. The call rests on the fitted dose curve; in most records, active means well fitted inhibition curve with a large enough effect; inconclusive means small, poorly fitted or top-dose-only effect; inactive means no such curve, though single readings can be large or run the other way. Where the call is inconclusive, the potency comes from a doubtful curve fit.
Further: nearly all actives have a fitted effect of over 65% in size.
Potency means the concentration at half of the fitted maximal effect; tags describe the fitted curve by direction and shape.

Each molecule was assayed against Thioredoxin reductase 1, cytoplasmic (Rattus norvegicus) (UniProt O89049) (assay: qHTS Assay for Inhibitors of Mammalian Selenoprotein Thioredoxin Reductase 1 (TrxR1): qHTS). Settings: recombinant rTrxR1, NADPH fluorescence consumption, selenite substrate; series mostly up to 114 µM.
Sequence of UniProt O89049 (O89049 whole entry, looked up): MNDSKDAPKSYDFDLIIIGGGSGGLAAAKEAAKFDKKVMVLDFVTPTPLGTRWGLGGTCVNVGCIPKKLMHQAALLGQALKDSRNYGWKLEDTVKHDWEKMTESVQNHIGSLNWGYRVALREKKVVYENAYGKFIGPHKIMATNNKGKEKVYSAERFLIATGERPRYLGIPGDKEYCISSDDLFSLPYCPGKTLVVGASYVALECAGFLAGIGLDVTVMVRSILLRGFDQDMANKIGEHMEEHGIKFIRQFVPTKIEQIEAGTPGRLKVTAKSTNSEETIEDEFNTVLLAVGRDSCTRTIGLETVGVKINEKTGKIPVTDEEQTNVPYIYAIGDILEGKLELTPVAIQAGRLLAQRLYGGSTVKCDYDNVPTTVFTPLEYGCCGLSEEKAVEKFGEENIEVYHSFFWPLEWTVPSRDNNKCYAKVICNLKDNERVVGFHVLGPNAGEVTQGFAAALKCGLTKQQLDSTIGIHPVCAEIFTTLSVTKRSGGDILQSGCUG
In short: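 Rat TrxR1 (90 nM in the dispensed reagent) was pre-reduced with 400 uM NADPH for 5 min at room temperature, then incubated with compound for 15 min. After 400 uM selenite was added, NADPH fluorescence (Ex 340/Em 450 nm) was followed for 8 min.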
In the case of `Cc1ccc(CNC(=O)C2CCCN(S(=O)(=O)c3cnc[nH]3)C2)cc1` (centres undefined), the Potency is reported as “inactive”. In the case of `Cc1ccc(CNC(=O)C2CCN(S(=O)(=O)c3c(C)noc3/C=C/c3ccco3)CC2)cc1`, the Potency is reported as inconclusive: 22.4 µM [inhibitor, single point]. For `COc1ccc(N(C(=O)c2ccco2)C(C(=O)NC2CCCC2)c2cccs2)cc1OC` (centres undefined), the Potency was inconclusive: 25.1 µM [inhibitor, single point]. For `Cc1nnc(N2C(=O)C(=O)/C(=C(/O)c3ccc4c(c3)OCCO4)C2c2ccc(F)cc2)s1` (centres undefined), the Potency was inconclusive: 70.8 µM [inhibitor, partial curve]. `Cc1cccc(-n2ccnc2SCC(=O)Nc2ccc3c(c2)OCO3)c1` was tested, and the Potency was “inactive”. With `COc1cc(CNc2cccc(F)c2)cc(Br)c1O` the Potency was active: 12.6 µM. With `CCCCNC(=O)CCCn1c(=O)[nH]c2ccc(Br)cc2c1=O` the Potency was “inactive”. For `COc1ccc(CNC(=O)c2cnn(-c3ccc(F)cc3)c2-n2cccc2)cc1`, the Potency was “inactive”. `COCc1ccc(C(=O)N2CCCC(C(=O)c3cccc(C(F)(F)F)c3)C2)o1` (centres undefined) was tested, and the Potency was inconclusive: 25.1 µM [inhibitor, full curve]. In the case of `CN(C)S(=O)(=O)c1cccc(NC(=S)N/N=C/c2ccc(O)c(O)c2O)c1`, the Potency is reported as inconclusive: 11.2 µM [inhibitor, full curve, poor fit]. In the case of `COc1ccc(NC(C)=O)cc1NC(=O)CSc1nc2ncccc2[nH]1`, the Potency is reported as “inactive”. `CC1=C(n2nnc([N+](=O)[O-])n2)C(c2cccnc2)C(C#N)=C(N)O1` (centres undefined) was tested, and the Potency was inconclusive: 79.4 µM [inhibitor, single point]. In the case of `O=C1NC(c2ccccc2)Nc2c1sc(=S)n2-c1ccccc1` (centres undefined), the Potency is reported as “inactive”. With `O=C(O)c1cc(/C=C/C(=O)c2cc(F)ccc2O)c2c(c1)COCO2` the Potency was active: 44.7 µM. For `COc1cc2nc(N3CCCN(C)CC3)nc(NC3CC3)c2cc1OC`, the Potency was inconclusive: 89.1 µM [inhibitor, single point]. In the case of `Oc1ccc(/C=N/Nc2nc(N3CCCC3)nc(N3CCCC3)n2)cc1O`, the Potency is reported as “inactive”. `Cc1cc(C(=O)N2CCN(c3cccc(Cl)c3)CC2)c(C)o1` was tested, and the Potency was inconclusive: 31.6 µM [inhibitor, single point]. With `O=C(c1cc(-c2ccncc2)nc2ccccc12)N1CCN(S(=O)(=O)/C=C/c2ccccc2)CC1` the Potency was inconclusive: 3.16 µM [inhibitor, partial curve]. For `O=C(O)c1ccc(/C=C2\COc3ccccc3C2=O)cc1`, the Potency was inconclusive: 56.2 µM [inhibitor, partial curve, poor fit]. In the case of `O=C1C2=C(Nc3ccccc3SC2c2ccco2)c2ccccc21` (centres undefined), the Potency is reported as inconclusive: 7.94 µM [inhibitor, full curve, poor fit]. With `O=C1C(=C(O)c2ccccc2)C(=O)c2ccccc21` the Potency was inconclusive: 5.01 µM [inhibitor, full curve]. In the case of `COC(=O)c1c(NC(=O)COC(=O)CCNS(=O)(=O)c2ccc(NC(C)=O)cc2)sc(C)c1C`, the Potency is reported as “inactive”. `CCOC(=O)CNC(=O)c1ccc(Br)s1` was tested, and the Potency was inconclusive: 89.1 µM [inhibitor, partial curve, poor fit]. In the case of `Cc1ccc(C)n1/N=C1/NC(=O)CS1`, the Potency is reported as inconclusive: 39.8 µM [inhibitor, single point]. In the case of `COc1ccc(NC(=S)Nc2cccc(Cl)c2Cl)cc1OC`, the Potency is reported as inconclusive: 28.2 µM [inhibitor, full curve]. For `COc1ccc(-c2c(C)c3ccc(O)cc3oc2=O)cc1OC`, the Potency was “inactive”. In the case of `Nc1ccc2nc3c(=O)[nH]c(=S)[nH]c3nc2c1`, the Potency is reported as inconclusive: 56.2 µM [inhibitor, partial curve, poor fit]. `CCCOc1ccc(C2C(C(=O)OC)=CN(CCOC)C=C2C(=O)OC)cc1` was tested, and the Potency was inconclusive: 70.8 µM [inhibitor, single point]. For `O=C(CCl)Nc1ccc2c(c1)OCO2`, the Potency was inconclusive: 63.1 µM [inhibitor, partial curve, poor fit]. With `Cc1ccc(-c2ccc(/C=C/C(=O)c3ccccc3)o2)cc1` the Potency was inconclusive: 70.8 µM [inhibitor, single point]. For `O=[N+]([O-])c1cc(S(=O)(=O)NCCCN2CCOCC2)ccc1Cl`, the Potency was inconclusive: 12.6 µM [inhibitor, full curve]. In the case of `O=C(COC(=O)c1ccccc1-n1cnnn1)c1ccc(Br)cc1`, the Potency is reported as “inactive”. In the case of `COc1cc(C(=O)N/N=C(\C)c2ccc(NC(=O)Cc3ccccc3)cc2)ccc1O`, the Potency is reported as “inactive”. With `CCOC(=O)N1CCN(c2cc(=O)n(-c3ccc(C)cc3)c(=O)[nH]2)CC1` the Potency was inconclusive: 20 µM [inhibitor, single point]. For `Cc1oc2c(C)c3oc(=O)c(CCC(=O)O)c(C)c3cc2c1-c1ccccc1`, the Potency was “inactive”. In the case of `CN(Cc1ccccc1)C(=O)c1[nH]cnc1C(=O)NC1CCN(C(=O)OC(C)(C)C)CC1`, the Potency is reported as inconclusive: 56.2 µM [inhibitor, partial curve]. For `O=S(=O)(c1cccc(C(F)(F)F)c1)N1CCC(c2cc(-c3cccc4ccccc34)n[nH]2)CC1`, the Potency was “inactive”. With `O=c1c2ccccc2nc(-c2ccco2)n1Cc1ccccc1` the Potency was inconclusive: 39.8 µM [inhibitor, single point]. For `CC(=O)Nc1ccc(-n2c(C)ccc2-c2ccccc2)cc1`, the Potency was inconclusive: 100 µM [inhibitor, partial curve, poor fit]. With `COc1cccc(CN2CCNC(=O)C2CC(=O)N(C)C2CCOCC2)c1` (centres undefined) the Potency was inconclusive: 50.1 µM [inhibitor, partial curve]. `Cc1cc(C)c(CN2CCN(C(=O)Cn3cnc4c(OCc5ccccc5)ncnc43)CC2)c(C)c1` was tested, and the Potency was “inactive”. In the case of `CCOc1ccc(N(CC(=O)NCc2ccccc2)S(=O)(=O)c2c(C)noc2C)cc1`, the Potency is reported as inconclusive: 89.1 µM [inhibitor, single point]. With `CCOC(=O)C1=C(COC(=O)/C=C/c2ccc(C)o2)NC(=O)NC1C` (centres undefined) the Potency was active: 50.1 µM. For `CCCCn1c(SCC(=O)c2ccc3c(c2)OCCO3)nnc1-c1ccco1`, the Potency was active: 7.08 µM. `O=c1[nH]cnc2c1cnn2Cc1ccccc1Cl` was tested, and the Potency was “inactive”. In the case of `Cc1ccc(CNC(=O)CS(=O)Cc2nc(-c3ccccc3C)oc2C)cc1` (centres undefined), the Potency is reported as inconclusive: 22.4 µM [inhibitor, partial curve, poor fit]. With `O=C(c1ccc(Nc2nc3ccccc3n3nnnc23)cc1)N1CCN(c2cccc(C(F)(F)F)c2)CC1` the Potency was active: 70.8 µM. With `COc1ccc(C=C2C(=O)OC(C)(C)OC2=O)cc1OC` the Potency was inconclusive: 25.1 µM [inhibitor, partial curve]. In the case of `COc1ccc(C(=O)Nc2cc(C(C)=O)c(/C=C/N(C)C)oc2=O)cc1`, the Potency is reported as inconclusive: 70.8 µM [inhibitor, partial curve]. In the case of `Cc1ccc(NC(=O)CSc2n[nH]c(-c3cccnc3)n2)cc1Cl`, the Potency is reported as inconclusive: 89.1 µM [inhibitor, single point]. For `O=C(NC(=S)Nc1ccccc1Br)C1CCC1`, the Potency was inconclusive: 63.1 µM [inhibitor, single point]. `O=c1ccn(-c2cccc(C(F)(F)F)c2)nc1-c1ccn(-c2ccccc2F)n1` was tested, and the Potency was “inactive”. In the case of `C(=N\N1CCOCC1)/c1nc(-c2ccccc2)n2ccccc12`, the Potency is reported as inconclusive: 25.1 µM [inhibitor, partial curve]. With `COc1ccc(-c2[nH]nc3c2C(c2ccsc2)C(C#N)=C(N)O3)cc1` (centres undefined) the Potency was inconclusive: 12.6 µM [inhibitor, partial curve]. In the case of `Cc1ccc2nsnc2c1NC(=S)NC(=O)c1ccco1`, the Potency is reported as inconclusive: 22.4 µM [inhibitor, single point]. In the case of `Cc1ccc(-n2c(-c3cccc(C)c3)n[nH]c2=S)cc1`, the Potency is reported as inconclusive: 5.62 µM [inhibitor, partial curve, poor fit]. With `CCc1cc2ccccc2nc1SCC(=O)NC1CCCC1` the Potency was “inactive”. In the case of `O=C(c1cccc2cccc(O)c12)N1CCCCC1`, the Potency is reported as inconclusive: 35.5 µM [inhibitor, single point]. `C/C(CCc1ccco1)=N\NC(=O)CNc1cccc2ccccc12` was tested, and the Potency was inconclusive: 50.1 µM [inhibitor, partial curve, poor fit]. With `CCn1c(=N)n(CC(=O)C(C)(C)C)c2ccccc21` the Potency was “inactive”. `CCCCCCCCCC[n+]1ccc(/C=C/c2c(C)[nH]c3ccccc23)c2ccccc21` was tested, and the Potency was inconclusive: 70.8 µM [inhibitor, partial curve, poor fit]. In the case of `CC1(C)Cc2c(C#N)c(OCC(=O)c3ccccc3)nc(-c3ccoc3)c2CO1`, the Potency is reported as active: 50.1 µM. With `CCN1CCOC(=O)C1CC(=O)Nc1ccc(C(C)=O)cc1` (centres undefined) the Potency was inconclusive: 56.2 µM [inhibitor, single point]. With `Clc1ccc(-c2nc(/C=N/N3CCOCC3)c3ccccn23)cc1` the Potency was inconclusive: 70.8 µM [inhibitor, single point]. In the case of `CC1CCN(S(=O)(=O)c2ccc(C(=O)OCc3ccc4c(c3)OCO4)cc2)CC1`, the Potency is reported as inconclusive: 79.4 µM [inhibitor, partial curve]. In the case of `Cc1cc(O)ccc1NC(=O)CCN1C(=O)c2ccc([N+](=O)[O-])cc2C1=O`, the Potency is reported as inconclusive: 56.2 µM [inhibitor, partial curve, poor fit]. With `CCOC(=O)c1sc(N2C(=O)C(O)=C(C(=O)c3ccc(C)o3)C2c2ccc(OC)c(OC)c2)nc1C` (centres undefined) the Potency was inconclusive: 22.4 µM [inhibitor, single point]. In the case of `COc1ccc(Cl)cc1NC(=O)CCN1C(=O)c2ccccc2Sc2ncccc21`, the Potency is reported as inconclusive: 39.8 µM [inhibitor, single point]. For `CN(C)c1ccc(C(=O)N/N=C/c2ccccn2)cc1`, the Potency was inconclusive: 79.4 µM [inhibitor, single point].
